Measurements: PubChem BioAssay AID624296 (National Center for Advancing Translational Sciences (NCATS), 2012)
In all, about 350,000 compounds went through this assay and about 9,900 (2.8%) were called active. Inconclusive means that the source gave no clear call. Such entries were picked first, then a sample of the others. The call rests on the fitted dose curve; in most records, active means well fitted activation curve with a large enough effect; inconclusive means small, poorly fitted or top-dose-only effect; inactive means no such curve, though single readings can be large or run the other way. No potency is given beside an inconclusive call; the fits are too rough.

experiment: A quantitative high throughput screen for small molecules that induce DNA re-replication in MCF 10a normal breast cells.; further: nearly all actives have a fitted effect of over 50% in size; on activity, positive = re-replication: % of control where 0% means no effect; details: MCF 10A DNA re-replication, Hoechst nuclear intensity, 48 h; activity, positive = re-replication: at 46.1 µM (top of the series)
Potency means the concentration at half of the fitted maximal effect; tags describe the fitted curve by direction and shape.

| SMILES | Potency | activity, positive = re-replication |
| --- | --- | --- |
| Cc1cc(C)n(-c2ccc(C(=O)Nc3nc4ccccc4s3)cc2)n1 | inconclusive [activator, partial curve] | – |
| Cc1cc(C)c(OCC(=O)Nc2ccc3c(c2)OCO3)cc1C | – | inactive: -191% [at 0.0737 µM] |
| O=C1OC(c2cccc([N+](=O)[O-])c2)C2(CCCC2)C(=O)C12CCCCC2 (configuration not stated) | inconclusive [activator, partial curve, poor fit] | – |
| CC1CN(C(=O)COC(=O)c2ccc(Cl)nc2)CC(C)O1 (configuration not stated) | inconclusive [activator, partial curve, poor fit] | – |
| CCN1CCN(Cc2ccc(NC(=O)c3cc(NC(=O)c4nccnc4N)cc(OC)c3)cc2C(F)(F)F)CC1 | inconclusive [activator, partial curve, poor fit] | – |
| Cc1oc(-c2ccc(Cl)cc2)nc1CN1CCC(C(=O)NCc2cccnc2)CC1 | inconclusive [activator, partial curve, poor fit] | – |
| CN(C(=O)COC(=O)c1nc(Cl)c(Cl)c(Cl)c1Cl)C1CCS(=O)(=O)C1 (configuration not stated) | active: 3.66 µM | – |
| CC(=O)Nc1ccc2nc(-c3ccccn3)[nH]c2c1 | inconclusive [activator, single point] | – |
| Cc1ccc(OCCNC(=O)c2ccccc2F)cc1 | inactive | – |
| CC(C)(Oc1ccc(Cl)cc1)C(=O)NCC(c1cccs1)N1CCOCC1 (configuration not stated) | inconclusive [activator, partial curve, poor fit] | – |
| C=CCn1c(SCC(=O)NC(=O)NCc2ccco2)nc2sc(CC)cc2c1=O | inconclusive [activator, partial curve, poor fit] | – |
| Cc1ccc(NC(=O)CSc2nnc(CNC(=O)c3ccco3)n2C)c(C)c1 | inconclusive [activator, single point] | – |
| Cc1cc(N2C(=O)C3CC=CCC3C2=O)cc(C)c1Br (configuration not stated) | inactive | – |
| Cc1cc(=O)oc2cc(OCCSc3nnc(-c4ccccc4)o3)ccc12 | inconclusive [activator, partial curve, poor fit] | – |
| CS(=O)(=O)N1CCN(Cc2cc(=O)n3ccsc3n2)CC1 | inactive | – |
| CCOC(=O)C1=C(C)N=c2s/c(=C3\C(=O)Nc4ccccc43)c(=O)n2C1c1ccc2c(c1)OCO2 (configuration not stated) | inactive | – |
| O=C(Nc1ccc(Br)cc1)C1C2C=CC3(O2)C1C(=O)N(CCN1CCOCC1)C3C(=O)NC1CCCCC1 (configuration not stated) | inactive | – |
| Cc1cc(C)cc(OCC(O)CN2CCC(CN3C(=O)c4cccc5cccc(c45)C3=O)CC2)c1 (configuration not stated) | inconclusive [activator, single point] | – |
| Cc1sc2ncnc(N3CCN(S(=O)(=O)c4ccc(F)cc4)CC3)c2c1C | inactive | – |
| O=C(c1cnn2c(C(F)F)cc(-c3ccccc3)nc12)N1CCc2ccccc2C1 | inconclusive [activator, single point] | – |
| COc1ccc(-c2csc(Nc3ccccn3)n2)cc1OC | inconclusive [activator, single point] | – |
| COc1ccc2[nH]c3c(N4CCC(O)(c5cccc(C(F)(F)F)c5)CC4)ncnc3c2c1 | inconclusive [activator, single point] | – |
| CC(C)NC(=O)Cn1c(SCC(=O)N2CCCc3ccccc32)nc2ccccc21 | inconclusive [activator, full curve, poor fit] | – |

| SMILES | Potency | activity, positive = re-replication |
| --- | --- | --- |
| Cn1[nH]c(C(F)(F)F)cc1=O | inconclusive [activator, partial curve, poor fit] | – |
| O=C(CN1CCCC1)Nc1cc(F)ccc1F | inconclusive [activator, partial curve, poor fit] | – |
| Cc1ccc(S(=O)(=O)N2CCOCC2)cc1NC(=O)COC(=O)c1cnc(Cl)c(Cl)c1 | inactive | – |
| Cc1ccc2c(c1)C(=O)C(=O)N2Cc1ccc(Br)cc1 | inconclusive [activator, single point] | – |
| Cc1cccc2sc(N(CCN3CCOCC3)C(=O)CCS(=O)(=O)c3ccccc3)nc12 | inconclusive [activator, single point] | – |
| CC(C)[N+](C)(C)CC(O)CN(c1ccccc1)c1ccccc1 (configuration not stated) | inactive | – |
| Cn1cccc1/C=C1\CC(C(C)(C)C)C/C(=C\c2cccn2C)C1=O (configuration not stated) | active: 3.66 µM | – |
| Cc1ccc(C(=O)N2CCN(C(=O)c3ccccc3)C2c2ccc(N(C)C)cc2)cc1 (configuration not stated) | inconclusive [activator, single point] | – |
| CCN(CC)S(=O)(=O)c1ccc(N/N=C/c2cc(OC)c(OC)cc2OC)nc1 | inconclusive [activator, single point] | – |
| COc1ccc2cc(C(C)C(=O)Nc3cccc(S(=O)(=O)N(C)C)c3)ccc2c1 (configuration not stated) | inconclusive [activator, partial curve, poor fit] | – |
| Cc1occc1C(=O)NNC(=S)NC(=O)COc1ccc(Cl)cc1Cl | inconclusive [activator, single point] | – |
| NNc1nc2sc3c(c2c(=O)[nH]1)CCc1ccccc1-3 | inconclusive [activator, single point] | – |
| COc1ccc(CNC(=O)C/C(C)=N/NC(=O)COc2ccc(C)cc2Br)cc1 | inconclusive [activator, single point] | – |
| CN1CCc2c(OCc3ccc(F)cc3)cccc2C1=O | inactive | – |
| COc1ccc(C2Nc3ccccc3C(=O)N2c2ccccc2)cc1CSc1ccccn1 (configuration not stated) | inactive | – |
| CCOc1cc2[nH]c(=O)n(Cc3ccc(C(=O)NCCCN4CCCC4=O)cc3)c(=O)c2cc1OCC | – | inconclusive: 76.3% [activator] |
| COc1cc(C2Sc3ccccc3NC3=C2C(=O)OC3)cc(OC)c1OC (configuration not stated) | inconclusive [activator, single point] | – |
| O=C(Nc1ncccc1O)c1ccc2c(c1)OCO2 | inactive | – |
| CCNCc1cc(Cl)c(OCc2ccccc2)c(OCC)c1 | inactive | – |
| CC(C)C(=O)Nc1cccc(-c2nc3ncccc3o2)c1 | inactive | – |
| CCOC(=O)[C@H]1[C@H]2COc3ccc(OC)cc3[C@@H]2N2C(=O)CN(Cc3ccc(OC)cc3)C(=O)[C@@]12C | inactive | – |
| Cc1ccc(C(=O)NCCc2cccc(Cl)c2)cc1[N+](=O)[O-] | inactive | – |
| COc1ccc(C(=O)Nc2ccccc2N2CCN(C(=O)C(C)C)CC2)cc1Cl | inactive | – |

| SMILES | Potency | activity, positive = re-replication |
| --- | --- | --- |
| O=C(CSc1ncnc2nc[nH]c12)Nc1nnc(SCc2ccc(Cl)c(Cl)c2)s1 | inconclusive [activator, single point] | – |
| CN1CCN(C(=O)CCN2C(=O)S/C(=C/c3ccc(Cl)cc3)C2=O)CC1 | inconclusive [activator, full curve, poor fit] | – |
| O=C(NCC(=O)N(c1cccc(F)c1)C(C(=O)NC1CCCC1)c1cccnc1)c1ccco1 (configuration not stated) | inactive | – |
| CCOc1ccc(C(C)=O)cc1N1C(=O)C2C3C=CC(O3)C2C1=O (configuration not stated) | inconclusive [activator, single point] | – |
| COc1ccc(C)cc1NC(=O)Nc1ccc2c(c1)CCC2 | active: 23.1 µM | – |
| CCn1nc(C)c(NC(=O)CC23CC4CC(CC(C4)C2)C3)c1C | inconclusive [activator, partial curve, poor fit] | – |
| O=C(Nc1nc(-c2ccc(Cl)s2)cs1)c1ccccc1 | inconclusive [activator, partial curve, poor fit] | – |
| Oc1ccc(/C=C/c2ccc3cccc(O)c3n2)cc1Br | inconclusive [activator, single point] | – |
| O=C(CCn1c(=O)[nH]c2ccsc2c1=O)N1CCN(c2cccc(Cl)c2)CC1 | inconclusive [activator, partial curve, poor fit] | – |
| Cc1ccnc(NC(=O)CN2C(=O)c3ccccc3S2(=O)=O)c1 | inconclusive [activator, single point] | – |
| NNc1nc(-c2ccccc2)cc(-c2ccccc2)n1 | inactive | – |
| OC(CNCc1ccco1)Cn1c2ccc(Br)cc2c2cc(Br)ccc21 (configuration not stated) | inconclusive [activator, single point] | – |
| CCc1cc2c(COC(=O)c3cc(S(=O)(=O)N4CCOCC4)ccc3F)cc(=O)oc2cc1O | inconclusive [activator, single point] | – |
| Cc1ccc(C)c(S(=O)(=O)N2CCN(Cc3ccc(O)c4ncccc34)CC2)c1 | inconclusive [activator, single point] | – |
| C=CCSc1nnc(CCCCCN2C(=O)c3cccc4cccc(c34)C2=O)o1 | inconclusive [activator, partial curve, poor fit] | – |
| CCCC(c1nnnn1C(C)(C)C)N1CCN(Cc2ccccc2OC)CC1 (configuration not stated) | inactive | – |
| Nc1nc2n(n1)C(c1cccs1)CC(c1ccccc1)N2 (configuration not stated) | inactive | – |
| COC(=O)c1cnn2c(C(F)(F)F)cc(-c3ccc(F)cc3)nc12 | inconclusive [activator, partial curve, poor fit] | – |
| CC[C@]12c3[nH]c4ccc(Cl)cc4c3CCN1C(=O)[C@@H](CC(=O)NCC13CC4CC(CC(C4)C1)C3)C[C@@H]2C(=O)N1CCN(C(=O)c2ccco2)CC1 | active: 20.6 µM | – |
| Cc1nn(Cc2ccc(Cl)cc2)c(C)c1NC(=O)C(c1ccccc1)c1ccccc1 | inconclusive [activator, partial curve, poor fit] | – |
| c1csc(C(c2nnnn2C2CCCCC2)N2CCCC3(CCCCC3)C2)c1 (configuration not stated) | inconclusive [activator, partial curve, poor fit] | – |
